Test results as given in the supplement of paper PMC10670038.
Where a name gives a salt, the structure may show the parent alone. ± gives the standard deviation of the averaged measurements. Over roughly 2,000 compounds, “relative cell viability vs DMSO, compound alone” has its median near 1.1; the lowest 2% begin near 0.29. The list shows a part of the results.

test system: TE10; experiment: relative cell viability vs DMSO, compound alone (fraction); TE10 is an esophageal squamous carcinoma line; higher = less cytotoxic; settings: 2 µM; 48 h
Protocol: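 TE10 ESCC cells (1,000/well, 384-well plates) were treated with Selleck bioactive library compounds at 2 uM alone for 48 h. Viability was read by CellTiter-Glo and expressed relative to DMSO wells. Two technical replicates (A, B).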

| SMILES | relative cell viability |
| --- | --- |
| C#Cc1cccc(Nc2ncnc3cc(OCCOC)c(OCCOC)cc23)c1 [Erlotinib] | 1.08 ± 0.024 |
| C#Cc1cccc(Nc2ncnc3cc(OCCOC)c(OCCOC)cc23)c1 [Erlotinib HCl (OSI-744)] | 1.18 ± 0.11 |
| COc1ccc(Cn2ccc3ccc(C(=O)NO)cc32)cc1 | 0.9751 ± 0.0083 |
| Cc1onc(-c2ccccc2Cl)c1C(=O)N[C@@H]1C(=O)N2[C@@H]1SC(C)(C)[C@@H]2C(=O)O [Cloxacillin Sodium] | 0.759 ± 0.014 |
| COC(=O)C1=CO[C@@H](O[C@@H]2O[C@H](CO)[C@@H](O)[C@H](O)[C@H]2O)[C@@H]2C(CO)=CC[C@H]12 [Geniposide] | 1.07 ± 0.059 |
| CN[C@@H]1[C@H](O)[C@H](NC)[C@H]2O[C@@]3(O)C(=O)C[C@@H](C)O[C@H]3O[C@@H]2[C@H]1O [Spectinomycin HCl] | 1.03 ± 0.12 |
| NS(=O)(=O)c1cc2c(cc1Cl)NC(C(Cl)Cl)NS2(=O)=O (centres undefined) [Trichlormethiazide] | 0.891 ± 0.072 |
| NC(=O)c1cnc(N[C@@H]2CCCC[C@@H]2N)nc1Nc1cccc(-n2nccn2)c1 | 1.13 ± 0.016 |
| CC(C)C(=O)Oc1ccc(CO)cc1[C@H](CCN(C(C)C)C(C)C)c1ccccc1 [Fesoterodine Fumarate] | 1.12 ± 0.031 |
| Cc1nn(-c2ccccc2)c(C)c1C=NN1CCN(Cc2ccccc2)CC1 | 1.04 ± 0.085 |
| Cc1ccc(NC(=O)c2ccc(CN3CCN(C)CC3)cc2)cc1Nc1nccc(-c2cccnc2)n1 [Imatinib Mesylate (STI571)] | 1.18 ± 0.042 |
| Cc1ccc(NC(=O)c2ccc(CN3CCN(C)CC3)cc2)cc1Nc1nccc(-c2cccnc2)n1 [Imatinib (STI571)] | 1.18 ± 0.064 |
| O=C(O)C(=O)O.[NH-][C@@H]1CCCC[C@H]1[NH-].[Pt+2] [Oxaliplatin] | 0.99 ± 0.025 |
| O=C(NCC1(c2nc(-c3ccccc3)cs2)CCOCC1)c1cccc(-c2noc(C(F)(F)F)n2)c1 | 0.8055 ± 0.0031 |
| CCOC(=O)O[C@]1(C(=O)OCCl)CC[C@H]2[C@@H]3CCC4=CC(=O)C=C[C@]4(C)[C@H]3[C@@H](O)C[C@@]21C [Loteprednol etabonate] | 0.909 ± 0.013 |
| CCc1c2c(nc3ccc(O)cc13)-c1cc3c(c(=O)n1C2)COC(=O)[C@]3(O)CC | 0.501 ± 0.03 |
| Clc1ccc(C(Cn2ccnc2)OCc2ccsc2Cl)c(Cl)c1 (centres undefined) [Tioconazole] | 0.893 ± 0.026 |
| COc1cc(C(=O)N2CCC(N3CCN(C)CC3)CC2)ccc1Nc1ncc2c(n1)N(C)c1ccccc1C(=O)N2C | 1.01 ± 0.065 |
| COc1cc2c(c(OC)c1OC)-c1c(cc3c(c1OC)OCO3)CC(C)C(C)C2 (centres undefined) [Schisandrin B (Sch B)] | 1.08 ± 0.048 |
| CCOC(=O)c1cnc2ccc(-c3cncc(NS(=O)(=O)c4ccccc4)c3)cn12 | 0.50898 ± 0.00049 |
| C[C@@H](Nc1cc(F)cc(F)c1)c1cc(C(=O)N(C)C)cc2c(=O)cc(N3CCOCC3)oc12 | 0.765 ± 0.14 |
| Cc1c(C(=O)NN2CCCCC2)nn(-c2ccc(Cl)cc2Cl)c1-c1ccc(Cl)cc1 [Rimonabant] | 0.908 ± 0.047 |
| COc1cc2c(cc1OC)CC(=O)N(CCCN(C)C[C@H]1Cc3cc(OC)c(OC)cc31)CC2 [Ivabradine HCl] | 1.13 ± 0.018 |
| CN1CC(=O)N2[C@H](c3ccc4c(c3)OCO4)c3[nH]c4ccccc4c3C[C@@H]2C1=O [Tadalafil] | 1.15 ± 0.033 |
| CCN(C(=O)c1c(O)c2c(Cl)cccc2n(C)c1=O)c1ccccc1 [Laquinimod] | 1.12 ± 0.027 |

| SMILES | relative cell viability |
| --- | --- |
| CCc1nc(N)nc(N)c1-c1ccc(Cl)cc1 [Pyrimethamine] | 0.754 ± 0.043 |
| CC(C)NCC(O)COc1ccc(CCOCC2CC2)cc1 (centres undefined) [Betaxolol hydrochloride (Betoptic)] | 0.752 ± 0.047 |
| CC(C)(OCc1nn(Cc2ccccc2)c2ccccc12)C(=O)O [Bindarit] | 1.1 ± 0.053 |
| CCCN1CCCC[C@H]1C(=O)Nc1c(C)cccc1C [Ropivacaine HCl] | 1.167 ± 0.0022 |
| CC(NC(=O)c1ccccc1/N=C/c1c(O)ccc2ccccc12)c1ccccc1 (centres undefined) [Sirtinol] | 1.09 ± 0.017 |
| Cc1cccc(-c2[nH]c(C(C)(C)C)nc2-c2ccc3c(c2)OCO3)n1 | 1.1 ± 0.051 |
| COc1cc(OC2CCN(C)CC2)ccc1Nc1ncc2c(n1)n(C1CCCC1)c(=O)n2C | 1.08 ± 0.062 |
| C#CCN[C@@H]1CCc2ccccc21 [Rasagiline Mesylate] | 1.09 ± 0.062 |
| COc1ccc(NS(=O)(=O)c2sc3ccc(Cl)cc3c2C)cc1N1CCNCC1 | 1.07 ± 0.021 |
| CN1c2cc(O)c(N=NC(N)=O)cc2CC1S(=O)(=O)O (centres undefined) [Carbazochrome sodium sulfonate (AC-17)] | 0.736 ± 0.084 |
| CCOc1nc2cccc(C(=O)OCc3oc(=O)oc3C)c2n1Cc1ccc(-c2ccccc2-c2noc(=O)[nH]2)cc1 [Azilsartan Medoxomil] | 1.16 ± 0.06 |
| NC(=O)c1ccc(I)c([N+](=O)[O-])c1 [Iniparib (BSI-201)] | 1.18 ± 0.025 |
| O=C(O)c1cc(/N=N/c2ccc(S(=O)(=O)Nc3ccccn3)cc2)ccc1O [Sulfasalazine] | 1.04 ± 0.026 |
| C=C1c2cccc(O)c2C(O)=C2C(=O)[C@]3(O)C(O)=C(C(N)=O)C(=O)[C@@H](N(C)C)[C@@H]3[C@@H](O)[C@H]12 [Methacycline HCl] | 1.14 ± 0.027 |
| C/C(=C\C(=O)OCCCCCCCCC(=O)O)C[C@@H]1OC[C@H](C[C@@H]2O[C@H]2[C@@H](C)[C@H](C)O)[C@@H](O)[C@H]1O [Mupirocin] | 1.203 ± 0.0043 |
| COc1ccc(C2=N[C@@H](c3ccc(Cl)cc3)[C@@H](c3ccc(Cl)cc3)N2C(=O)N2CCNC(=O)C2)c(OC(C)C)c1 [Nutlin-3] | 1.21 ± 0.022 |
| CN/C(=N\CCSCc1nc[nH]c1C)NC#N [Cimetidine] | 1.01 ± 0.019 |
| COc1cc2ncnc(Nc3cccc(Cl)c3)c2cc1OC [AG-1478 (Tyrphostin AG-1478)] | 1.06 ± 0.011 |
| O=c1oc2cc(O)ccc2s1 [Tioxolone] | 1.08 ± 0.018 |
| CS(=O)(=O)c1ccc(-c2nnc(/C=C/c3nnc(-c4ccc(C#N)cc4)o3)n2-c2ccccc2Cl)nc1 | 1.06 ± 0.013 |
| c1coc(CNc2ncnc3[nH]cnc23)c1 [Kinetin] | 0.914 ± 0.12 |
| C[C@]12CCC3=C4CCC(=O)C=C4CC[C@H]3[C@@H]1CC[C@@]2(O)CC#N [Dienogest] | 1.19 ± 0.024 |
| CCOC(=O)[C@H](CCc1ccccc1)N[C@@H](C)C(=O)N1C(=O)N(C)C[C@H]1C(=O)O [Imidapril HCl] | 1.038 ± 0.0027 |
| C[C@@H]1C[C@H]2[C@@H]3CCC4=CC(=O)C=C[C@]4(C)[C@@]3(Cl)[C@@H](O)C[C@]2(C)[C@@]1(OC(=O)c1ccco1)C(=O)CCl [Mometasone furoate] | 0.95932 ± 0.0006 |
| Cc1ccc(NC(=O)C2(c3ccc4c(c3)OC(F)(F)O4)CC2)nc1-c1cccc(C(=O)O)c1 [VX-809 (Lumacaftor)] | 0.817 ± 0.014 |

| SMILES | relative cell viability |
| --- | --- |
| Cn1cc(/C=C2\C(=O)Nc3cccnc32)c2ccccc21 | 1.076 ± 0.0071 |
| OCCOc1ccc(/C(=C(/CCCl)c2ccccc2)c2ccccc2)cc1 [Ospemifene] | 1.1 ± 0.011 |
| CC(C)OC(=O)C(C)(C)Oc1ccc(C(=O)c2ccc(Cl)cc2)cc1 [Fenofibrate] | 1.02 ± 0.026 |
| CCn1c(-c2nonc2N)nc2c(C#CC(C)(C)O)ncc(OC[C@H]3CCCNC3)c21 | 0.77315 ± 0.00057 |
| O=S(=O)(O)Oc1ccc(C(c2ccc(OS(=O)(=O)O)cc2)c2ccccn2)cc1 [Sodium Picosulfate] | 1.05 ± 0.029 |
| CN1C(=O)C(Cc2c[nH]c3ccccc23)NC1=S (centres undefined) [Necrostatin-1] | 1 ± 0.073 |
| Cc1cc2c(s1)Nc1ccccc1N=C2N1CCN(C)CC1 [Olanzapine] | 1.1 ± 0.03 |
| CC(=NNC(=S)N1CCC1)c1ccccn1 | 0.489 ± 0.042 |
| Cc1cn(-c2cc(NC(=O)c3ccc(C)c(Nc4nccc(-c5cccnc5)n4)c3)cc(C(F)(F)F)c2)cn1 [Nilotinib (AMN-107)] | 1.18 ± 0.14 |
| NC(=O)c1ccc(-c2nc(-c3ccccn3)c(-c3ccc4c(c3)OCO4)[nH]2)cc1 | 1.3 ± 0.069 |
| C[C@@H](O[C@H]1OCCN(Cc2n[nH]c(=O)[nH]2)[C@H]1c1ccc(F)cc1)c1cc(C(F)(F)F)cc(C(F)(F)F)c1 [Aprepitant] | 1.146 ± 0.011 |
| CCCNC(=O)Nc1ccc(Oc2ncnc3cc(OC)c(OC)cc23)cc1Cl | 0.845 ± 0.029 |
| CC(=O)c1c(C)c2cnc(Nc3ccc(N4CCNCC4)cn3)nc2n(C2CCCC2)c1=O | 1.116 ± 0.0015 |
| CNC(=O)c1cc(Oc2ccc3nc(N[C@@H]4CCCC[C@H]4O)sc3c2)ccn1 | 0.956 ± 0.081 |
| CC(C)(C)c1ccc(S(=O)(=O)/C=C/C#N)cc1 | 0.0635 ± 0.0029 |
| CC(=O)O[C@H]1C(=O)[C@@]2(C)[C@H]([C@H](OC(=O)c3ccccc3)[C@]3(O)C[C@H](OC(=O)[C@H](O)[C@@H](NC(=O)c4ccccc4)c4ccccc4)C(C)=C1C3(C)C)[C@]1(OC(C)=O)CO[C@@H]1C[C@@H]2O [Paclitaxel] | 0.72 ± 0.02 |
| NC(=O)c1cccc(-c2cccc(OC(=O)NC3CCCCC3)c2)c1 | 1.17 ± 0.024 |
| CN1CCC(Nc2nc(Nc3ccc(Oc4ccccc4)cc3)c3c(=O)[nH]cc(Br)c3n2)CC1 | 1.03 ± 0.017 |
| CN(C(Cc1ccc(OS(=O)(=O)c2cccc3cnccc23)cc1)C(=O)N1CCN(c2ccccc2)CC1)S(=O)(=O)c1cccc2cnccc12 (centres undefined) | 1.05 ± 0.03 |
| CCCN(CCC)CCc1cccc2c1CC(=O)N2 [Ropinirole HCl] | 1.006 ± 0.008 |
| COc1cccc2c1C(=O)c1c(O)c3c(c(O)c1C2=O)C[C@@](O)(C(=O)CO)C[C@@H]3O[C@H]1C[C@H](N)[C@@H](O)[C@H](C)O1 [Epirubicin HCl] | 0.323 ± 0.0051 |
| Nc1ccc(-c2ccc3ncc4ccc(=O)n(-c5cccc(C(F)(F)F)c5)c4c3c2)cn1 [Torin 2] | 0.378 ± 0.014 |
| CSc1nc2cc(Cl)c(Oc3cccc(Cl)c3Cl)cc2[nH]1 [Triclabendazole] | 1.15 ± 0.087 |
| Cc1cnc(-c2ccccc2C(C)C)nc1NCc1ccc(-n2ccnn2)cc1 | 1.14 ± 0.037 |
